Results taken from the supplement of paper PMC8728848.
This is one part of the list.

Legend:
Experiment in all cases: glycan array binding signal (z-score within array); higher = stronger binding
Settings in all cases: glycan notation: IUPAC condensed, linker removed
[1] = molecular target: Neu5Ac(a2-3)Gal(b1-4)GlcNAc(b1-6)GalNAc
Outline: (§1)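 The binding signal is a Z-score computed within each array. Data were drawn from 3228 arrays in the Consortium for Functional Glycomics database, restricted to those with a known protein sequence. Scores were averaged over arrays of the same protein sequence at different concentrations or buffers, and over linkers, and negative values can be taken as non-binding.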

[2] = molecular target: Neu5Ac(a2-3)Gal(b1-4)GlcNAc(b1-6)[Gal(b1-3)]GalNAc
Outline: as §1

[3] = molecular target: Neu5Ac(a2-3)Gal(b1-4)GlcNAc(b1-6)[Neu5Ac(a2-3)Gal(b1-3)]GalNAc
Outline: as §1

[4] = molecular target: Neu5Ac(a2-3)Gal(b1-4)GlcNAc6S
Outline: as §1

[5] = molecular target: Neu5Ac(a2-3)Gal(b1-4)[Fuc(a1-3)]GlcNAc
Outline: as §1

[6] = molecular target: Neu5Ac(a2-3)Gal(b1-4)[Fuc(a1-3)]GlcNAc(b1-2)Man
Outline: as §1

[7] = molecular target: Neu5Ac(a2-3)Gal(b1-4)[Fuc(a1-3)]GlcNAc(b1-3)Gal
Outline: as §1

[8] = molecular target: Neu5Ac(a2-3)Gal(b1-4)[Fuc(a1-3)]GlcNAc(b1-3)Gal(b1-4)GlcNAc
Outline: as §1

[9] = molecular target: Neu5Ac(a2-3)Gal(b1-4)[Fuc(a1-3)]GlcNAc(b1-3)Gal(b1-4)[Fuc(a1-3)]GlcNAc(b1-3)Gal(b1-4)[Fuc(a1-3)]GlcNAc
Outline: as §1

[10] = molecular target: Neu5Ac(a2-3)Gal(b1-4)[Fuc(a1-3)]GlcNAc(b1-3)GalNAc
Outline: as §1

[11] = molecular target: Neu5Ac(a2-3)Gal(b1-4)[Fuc(a1-3)]GlcNAc(b1-6)[Gal(b1-3)]GalNAc
Outline: as §1

[12] = molecular target: Neu5Ac(a2-3)Gal(b1-4)[Fuc(a1-3)]GlcNAc(b1-6)[Neu5Ac(a2-3)Gal(b1-3)]GalNAc
Outline: as §1

[13] = molecular target: Neu5Ac(a2-3)Gal(b1-4)[Fuc(a1-3)]GlcNAc6S
Outline: as §1

[14] = molecular target: Neu5Ac(a2-3)Gal6S(b1-4)GlcNAc
Outline: as §1

[15] = molecular target: Neu5Ac(a2-3)Gal6S(b1-4)[Fuc(a1-3)]GlcNAc
Outline: as §1

Neu5Ac(a2-3)GalNAc = molecular target: Neu5Ac(a2-3)GalNAc
Outline: as §1

[16] = molecular target: Neu5Ac(a2-3)GalNAc(b1-4)GlcNAc
Outline: as §1

[17] = molecular target: Neu5Ac(a2-3)[GalNAc(b1-4)]Gal(b1-4)Glc
Outline: as §1

[18] = molecular target: Neu5Ac(a2-3)[GalNAc(b1-4)]Gal(b1-4)GlcNAc
Outline: as §1

[19] = molecular target: Neu5Ac(a2-3)[GalNAc(b1-4)]Gal(b1-4)GlcNAc(b1-3)GalNAc
Outline: as §1

[20] = molecular target: Neu5Ac(a2-3)[Neu5Ac(a2-6)]GalNAc
Outline: as §1

Neu5Ac(a2-6)Gal = molecular target: Neu5Ac(a2-6)Gal
Outline: as §1

[21] = molecular target: Neu5Ac(a2-6)Gal(b1-3)GlcNAc(b1-3)[Gal(b1-4)GlcNAc(b1-6)]Gal(b1-4)Glc
Outline: as §1

Neu5Ac(a2-6)Gal(b1-4)Glc = molecular target: Neu5Ac(a2-6)Gal(b1-4)Glc
Outline: as §1

[22] = molecular target: Neu5Ac(a2-6)Gal(b1-4)GlcNAc
Outline: as §1

[23] = molecular target: Neu5Ac(a2-6)Gal(b1-4)GlcNAc(b1-2)Man
Outline: as §1

[24] = molecular target: Neu5Ac(a2-6)Gal(b1-4)GlcNAc(b1-2)Man(a1-3)Man(b1-4)GlcNAc(b1-4)GlcNAc
Outline: as §1

[25] = molecular target: Neu5Ac(a2-6)Gal(b1-4)GlcNAc(b1-2)Man(a1-3)[Gal(b1-4)GlcNAc(b1-2)Man(a1-6)]Man(b1-4)GlcNAc(b1-4)GlcNAc
Outline: as §1

[26] = molecular target: Neu5Ac(a2-6)Gal(b1-4)GlcNAc(b1-2)Man(a1-3)[GlcNAc(b1-2)Man(a1-6)]Man(b1-4)GlcNAc(b1-4)GlcNAc
Outline: as §1

[27] = molecular target: Neu5Ac(a2-6)Gal(b1-4)GlcNAc(b1-2)Man(a1-3)[GlcNAc(b1-4)][Neu5Ac(a2-6)Gal(b1-4)GlcNAc(b1-2)Man(a1-6)]Man(b1-4)GlcNAc(b1-4)GlcNAc
Outline: as §1

[28] = molecular target: Neu5Ac(a2-6)Gal(b1-4)GlcNAc(b1-2)Man(a1-3)[Man(a1-6)]Man(b1-4)GlcNAc(b1-4)GlcNAc
Outline: as §1

[29] = molecular target: Neu5Ac(a2-6)Gal(b1-4)GlcNAc(b1-2)Man(a1-3)[Neu5Ac(a2-3)Gal(b1-4)GlcNAc(b1-2)Man(a1-6)]Man(b1-4)GlcNAc(b1-4)GlcNAc
Outline: as §1

[30] = molecular target: Neu5Ac(a2-6)Gal(b1-4)GlcNAc(b1-2)Man(a1-3)[Neu5Ac(a2-6)Gal(b1-4)GlcNAc(b1-2)Man(a1-6)]Man(b1-4)GlcNAc(b1-4)GlcNAc
Outline: as §1

[31] = molecular target: Neu5Ac(a2-6)Gal(b1-4)GlcNAc(b1-2)Man(a1-3)[Neu5Ac(a2-6)Gal(b1-4)GlcNAc(b1-2)Man(a1-6)]Man(b1-4)GlcNAc(b1-4)[Fuc(a1-6)]GlcNAc
Outline: as §1

[32] = molecular target: Neu5Ac(a2-6)Gal(b1-4)GlcNAc(b1-2)Man(a1-6)Man(b1-4)GlcNAc(b1-4)GlcNAc
Outline: as §1

[33] = molecular target: Neu5Ac(a2-6)Gal(b1-4)GlcNAc(b1-2)Man(a1-6)[Gal(b1-4)GlcNAc(b1-2)Man(a1-3)]Man(b1-4)GlcNAc(b1-4)GlcNAc
Outline: as §1

[34] = molecular target: Neu5Ac(a2-6)Gal(b1-4)GlcNAc(b1-2)Man(a1-6)[GlcNAc(b1-2)Man(a1-3)]Man(b1-4)GlcNAc(b1-4)GlcNAc
Outline: as §1

[35] = molecular target: Neu5Ac(a2-6)Gal(b1-4)GlcNAc(b1-2)Man(a1-6)[Man(a1-3)]Man(b1-4)GlcNAc(b1-4)GlcNAc
Outline: as §1

[36] = molecular target: Neu5Ac(a2-6)Gal(b1-4)GlcNAc(b1-2)[Neu5Ac(a2-6)Gal(b1-4)GlcNAc(b1-4)]Man(a1-3)[GlcNAc(b1-4)][Neu5Ac(a2-6)Gal(b1-4)GlcNAc(b1-2)[Neu5Ac(a2-6)Gal(b1-4)GlcNAc(b1-6)]Man(a1-6)]Man(b1-4)GlcNAc(b1-4)GlcNAc
Outline: as §1

[37] = molecular target: Neu5Ac(a2-6)Gal(b1-4)GlcNAc(b1-2)[Neu5Ac(a2-6)Gal(b1-4)GlcNAc(b1-4)]Man(a1-3)[GlcNAc(b1-4)][Neu5Ac(a2-6)Gal(b1-4)GlcNAc(b1-4)Man(a1-6)]Man(b1-4)GlcNAc(b1-4)GlcNAc
Outline: as §1

[38] = molecular target: Neu5Ac(a2-6)Gal(b1-4)GlcNAc(b1-2)[Neu5Ac(a2-6)Gal(b1-4)GlcNAc(b1-6)]Man(a1-6)[Neu5Ac(a2-6)Gal(b1-4)GlcNAc(b1-2)Man(a1-3)][GlcNAc(b1-4)]Man(b1-4)GlcNAc(b1-4)GlcNAc
Outline: as §1

[39] = molecular target: Neu5Ac(a2-6)Gal(b1-4)GlcNAc(b1-3)Gal(b1-3)GlcNAc
Outline: as §1

[40] = molecular target: Neu5Ac(a2-6)Gal(b1-4)GlcNAc(b1-3)Gal(b1-4)GlcNAc
Outline: as §1

[41] = molecular target: Neu5Ac(a2-6)Gal(b1-4)GlcNAc(b1-3)Gal(b1-4)GlcNAc(b1-2)Man(a1-3)[Neu5Ac(a2-6)Gal(b1-4)GlcNAc(b1-3)Gal(b1-4)GlcNAc(b1-2)Man(a1-6)]GalNAc
Outline: as §1

[42] = molecular target: Neu5Ac(a2-6)Gal(b1-4)GlcNAc(b1-3)Gal(b1-4)GlcNAc(b1-3)Gal(b1-4)GlcNAc
Outline: as §1

B1: PX14375C-bth-509-28-509 (Bacteroides thetaiotaomicron) (protein)
chain: RSPQGQFTEDDNPNALVNGKIYNVYTMMRSFDITAGTPAIAIHYLRSEDSEKGSIPSDGSDVAEMYDDFLYTPTNGLLGSYWGKNYAIIYQCNDILDAIAEKETAGQTETEDIINKGEASFFRAYCYFNLVRAFGEVPLVTYKINDASEANIPKTTADKIYEQIDTDLKTAEESLPETWSTEYTGRLTWGAARSLHARTYMMRSDWDNMYKASTDVINKGLYNLKTPYNEIFTDDGENSGGSIFELQCTATAALPQSDVIGSQFCEVQGVRGAGQWDLGWGWHMATQLMADAYETGDPRKNATLLYFRKTDDEPITPENTNEPYGESPISPAMGAYFNKKAYTDPALRKEYTNKGFWVNIRLIRYSDVVLMAAEAANEKNIPGEAVDYLEMVRARARGTNTNILPKITTNDQGELREAIRHERRVELGLEPDRFYDLVRWGIASEVLHAAGKVNYQDKNALLPLPQSEIDKSKGVLVQNPDY
B1 was tested, and the “glycan array binding signal (z-score)” value [1] was -0.063, the “glycan array binding signal (z-score)” value [2] was -0.149 and the “glycan array binding signal (z-score)” value [3] was -0.14. For the same binder, the “glycan array binding signal (z-score)” value [4] was -0.321, the “glycan array binding signal (z-score)” value [5] was -0.1 and the “glycan array binding signal (z-score)” value [6] was -0.271. The “glycan array binding signal (z-score)” value [7] was -0.286, the “glycan array binding signal (z-score)” value [8] was -0.087 and the “glycan array binding signal (z-score)” value [9] was -0.299. The “glycan array binding signal (z-score)” value [10] was -0.014, the “glycan array binding signal (z-score)” value [11] was -0.056 and the “glycan array binding signal (z-score)” value [12] was 0.645. The “glycan array binding signal (z-score)” value [13] was 0.069, the “glycan array binding signal (z-score)” value [14] was -0.485 and the “glycan array binding signal (z-score)” value [15] was -0.309. The “glycan array binding signal (z-score)” value (Neu5Ac(a2-3)GalNAc) was -0.31, the “glycan array binding signal (z-score)” value [16] was -0.6 and the “glycan array binding signal (z-score)” value [17] was -0.197. For the same binder, the “glycan array binding signal (z-score)” value [18] was -0.411, the “glycan array binding signal (z-score)” value [19] was 0.323 and the “glycan array binding signal (z-score)” value [20] was -0.456. For the same binder, the “glycan array binding signal (z-score)” value (Neu5Ac(a2-6)Gal) was -0.311, the “glycan array binding signal (z-score)” value [21] was -0.383 and the “glycan array binding signal (z-score)” value (Neu5Ac(a2-6)Gal(b1-4)Glc) was -0.175. For the same binder, the “glycan array binding signal (z-score)” value [22] was -0.163, the “glycan array binding signal (z-score)” value [23] was -0.274 and the “glycan array binding signal (z-score)” value [24] was -0.115. For the same binder, the “glycan array binding signal (z-score)” value [25] was -0.22, the “glycan array binding signal (z-score)” value [26] was -0.055 and the “glycan array binding signal (z-score)” value [27] was -0.163. For the same binder, the “glycan array binding signal (z-score)” value [28] was -0.251, the “glycan array binding signal (z-score)” value [29] was -0.241 and the “glycan array binding signal (z-score)” value [30] was -0.245. For the same binder, the “glycan array binding signal (z-score)” value [31] was -0.145, the “glycan array binding signal (z-score)” value [32] was 0.109 and the “glycan array binding signal (z-score)” value [33] was -0.442. For the same binder, the “glycan array binding signal (z-score)” value [34] was -0.185, the “glycan array binding signal (z-score)” value [35] was -0.42 and the “glycan array binding signal (z-score)” value [36] was 0.105. For the same binder, the “glycan array binding signal (z-score)” value [37] was -0.331, the “glycan array binding signal (z-score)” value [38] was -0.21 and the “glycan array binding signal (z-score)” value [39] was -0.357. The “glycan array binding signal (z-score)” value [40] was -0.057, the “glycan array binding signal (z-score)” value [41] was 0.333 and the “glycan array binding signal (z-score)” value [42] was -0.449.
